Experimental data published in PubChem BioAssay AID1508623 (National Center for Advancing Translational Sciences (NCATS), 2021).
Hit rate of the full screen: of about 48,000 compounds, about 450 (0.94%) were called active. Roughly 19% stayed inconclusive and do not appear here. The call rests on the fitted dose curve; in most records, active means well fitted inhibition curve with a large enough effect; inconclusive means small, poorly fitted or top-dose-only effect; inactive means no such curve, though single readings can be large or run the other way. Some of the results follow.

Assay: Primary qHTS for Identification of Small Molecule Inhibitors of Huntingtin Promoter Activity; further: nearly all actives have a fitted effect of over 50% in size
Conditions: HEK293 HTT promoter firefly luciferase reporter (activity 0% = vehicle and -100% = no light), 24 h; series mostly up to 57.5 µM; activity change, negative = inhibition: at the top concentration
Outline: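 Luminescence was read after Dual-Glo reagent and a 10 min room-temperature incubation. Values were normalized to vehicle (0% activity) and zero RLU (-100% activity). Reporter HEK293 cells had been exposed to compounds (up to 57.5 uM final) for 24 h.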

Activity change, negative = inhibition, inactive:
Cc1ccccc1CSc1nc2c([nH]c3ccccc32)c(=O)n1C -1.08%, CCCc1cc(=O)[nH]c(SCc2nc(-c3ccccc3F)no2)n1 8.55%, COc1ccc(-n2c(=O)c3c4c(sc3n3c(SC(C)C)nnc23)COC(C(C)C)C4)cc1 (centres undefined) 1.08%, CCCn1c(=NC(=O)c2c(-c3c(F)cccc3Cl)noc2C)c(C(=O)OCC)cc2c(=O)n3ccccc3nc21 -11.5%, CC(=O)c1cccc(Nc2ccc3cc(S(=O)(=O)N4CCCC4)ccc3n2)c1 -19.8%, Cc1ccc(-n2ncc(C(=O)NCCN3CCc4ccccc4C3)c2C2CCNCC2)cc1C -5.04%, COc1ccc(NC(=O)c2cc(=O)c3ccc(C)c(C)c3o2)cc1Cl -9.06%, CC1CCN(S(=O)(=O)c2ccc3c(c2)N(CC(=O)NCCCN2CCCC(C)C2)C(=O)CS3)CC1 (centres undefined) -8.88%, CCN(CC)CCN 12.1%, CCOc1ccc(NC(=O)C(C)Sc2nc3ncccc3o2)cc1 (centres undefined) 50.6%, COc1ccc(-n2nc(C(=O)Nc3cccc(C)n3)c3c4ccccc4n(C)c3c2=O)cc1 -26.5%, CC(=O)c1ccc(N2CCN(c3ncnc4c3cnn4C)CC2)cc1 -20%, Cc1ccc2c(c1)-c1ncc(C(=O)c3cc(Br)ccc3O)cc1CO2 -8.48%, Cc1cc(C)cc(NC(=O)Cn2c(=O)n(Cc3ccc4c(c3)OCO4)c(=O)c3oc4ccccc4c32)c1 0.303%, Cc1cccc(CNC(=O)Cn2ccc3cc(S(=O)(=O)N4CCC(C)CC4)ccc32)c1 -14.8%, COc1ccccc1-c1cc(C(F)(F)F)nc(S(=O)(=O)CCCC(=O)Nc2ccc(F)cc2F)n1 21.1%, COc1ccc(-c2ccc(CCC(=O)O)n2-c2cc(Cl)ccc2O)cc1 8.64%, COc1cccc(C2CC(=O)Nc3c2c(=O)n(C)c2nc4ccccc4n32)c1 (centres undefined) -12.5%, CCOC(=O)C1CCN(C(=O)Cn2ncc3c([nH]c4ccccc43)c2=O)CC1 10.3%, CCC(C)N(C)C(=O)c1cc2ccccc2c(-c2ccccc2Cl)n1 (centres undefined) -20.8%, O=C(Cn1nnc2sc3c(c2c1=O)CCCC3)Nc1ccc(F)c(Cl)c1 -8.5%, CCCS(=O)(=O)NCCc1csc2nc(-c3ccc(OC)cc3)nn12 -12.3%, COc1ccc(C2NC(=O)NC(C)=C2C(=O)Nc2cc(C)cc(C)c2)c(OC)c1 (centres undefined) -1.27%, Cc1ccccc1CNC(=O)CCCn1nc(C)c2sc3ccccc3c2c1=O 5.88%, CCc1c(C)nc2nncn2c1Nc1ccc(C)c(F)c1 -35.7%, COc1ccccc1N(CC(=O)NCCSCc1ccc(Cl)cc1)S(C)(=O)=O -24.3%, CN(Cc1ccccc1)c1ncnc2c1nc1n2CCCC1 -8.05%, COc1cccc(C(=O)Nc2nnc(S(=O)(=O)N3CCOCC3)s2)c1 -4.57%, CCCCOc1cccc(C(=O)Nc2cccc3ccc(C)nc23)c1 -24.9%, Cc1ccc(CS(=O)(=O)Cc2ccc(C(=O)NCCc3ccc(Cl)cc3)o2)cc1 -4.07%, Cc1cc(C)c2c(=O)cc(C(=O)Nc3ccccc3Cl)oc2c1 5.4% [at 11.5 µM], Cc1ccc2c(CC(=O)Nc3cc(C(F)(F)F)ccc3Cl)coc2c1C -7.58%, CCC12CN3CC(CC)(CN(C1)C3c1ccc(OCc3ccccc3)cc1)C2=O (centres undefined) -3.19%, CCOC(=O)c1c(C)[nH]c(C)c1S(=O)(=O)N1CCC(C(=O)Nc2ccccn2)CC1 0.0988%, O=S(=O)(O)NC1CCCCC1 9.47%, Cc1ccc2oc(=O)n(CCNC(=O)Nc3ccccc3Cl)c2c1 -11.9%, COc1ccc(C2CC(=O)Nc3c2c(=O)nc2c(C)cccn32)cc1 (centres undefined) -9.77%, O=c1oc2ccc(Br)cc2cc1-c1nc(-c2ccccc2)no1 -7.05%, CCC(C)NC(=O)C1CCC(CNS(=O)(=O)c2cccc3nsnc23)CC1 (centres undefined) -14.8% [at 11.5 µM], CCS(=O)(=O)N1CC(=O)N(c2ccc(C)c(C)c2)C(C)(C(=O)NC2CCCCC2)C1 (centres undefined) 5.6%, CCc1ccc(-c2nc3c(c(SCc4ccc(F)cc4)n2)Cc2c(CO)cnc(C)c2O3)cc1 -18.2%, Cc1cccc(NC(=O)CSc2nc3c(oc4ccccc43)c(=O)n2C(C)C)c1 -24.3%, CC1=C(C(=O)NCCc2ccc(Cl)cc2)C2(CCCCC2)OC1=O -7.21%, COc1cccc(CNC(=O)Cn2ncc3c4ccccc4n(C)c3c2=O)c1 17.6%, COCCNC(=O)CCCn1c(SCC(=O)Nc2cccc(C)c2)nc2c(sc3ccccc32)c1=O -18.2%, COc1ccc(C(=O)c2oc3ccccc3c2NC(=O)COc2c(C)cc(C)cc2C)cc1 0.243%, COc1cccc(CNC(=O)c2c(O)nc3ccccn3c2=O)c1 -6.68%, CCOc1ccc(N2CC(c3nc4ccccc4n3CC(C)C)CC2=O)cc1 (centres undefined) 1.52%, COc1cc(-c2noc(-c3ccc(NCCc4ccccc4)c([N+](=O)[O-])c3)n2)cc(OC)c1OC 10.5%, CC(C)NC[C@@H](O)COc1cccc2ccccc12 3.99%, COc1cc(NC(=O)CCNS(=O)(=O)c2ccc3c(c2)CCN3C(=O)C2CC2)cc(OC)c1 5.74%, COCC(=O)N1CCc2cc(OC)c(OC)cc2C1COc1ccc2c(C)cc(=O)oc2c1 (centres undefined) -9%, Cc1ccc(C)c(N2CCN(C(=O)c3ccc4c(Cl)c5c(nc4c3)CCCC5)CC2)c1 -5.78%, O=C(Nc1sc2c(c1C(=O)NCc1ccccc1)CCCC2)c1cc(=O)c2cc(Cl)ccc2o1 19.4%, N#Cc1ccccc1Cn1nnc2c(=O)[nH]c(C3CCCN(S(=O)(=O)c4ccc(F)cc4)C3)nc21 (centres undefined) -12.9%, CCOc1ccccc1N1CC(c2nc3ccccc3n2CCCOc2ccccc2OC)CC1=O (centres undefined) 1.91%, O=C(NCc1ccccc1)C1CCC(CNS(=O)(=O)c2ccc(Br)s2)CC1 (centres undefined) -4.43%, CC1CCc2nn(CC(=O)Nc3cccc(C(F)(F)F)c3)c(=O)cc2C1 (centres undefined) -10.8%, COc1cc(NC(=O)Cn2c(=O)n(C(C)C)c(=O)c3oc4ccccc4c32)cc(OC)c1 -13.6%, O=C(Nc1cccnc1Cl)c1cc(-c2ccc(Cl)cc2)on1 2.55%, CCc1ccc(NC(=O)Cn2nnc(C(=O)NCc3ccco3)c2N)cc1 -12.7%, COc1cccc(COC(=O)c2ccc(-c3nnn(Cc4ccccc4)n3)cc2)c1 15.1%, CC1CCN(S(=O)(=O)c2cc(C(=O)NCc3ccc(F)cc3)n(C)c2)CC1 -25.9%, O=C1C(c2ccc(F)cc2)N(CCc2ccccc2)C(=O)CN1C1CCCCC1 (centres undefined) 13.2%, COc1ccc(CN(C(=O)Nc2ccc(C)c(F)c2)C2CCN(C(C)=O)CC2)cc1 -8.63%, CC(C)c1ccc(C(=O)Nc2cccc3cccnc23)cc1 44.7%, CC(=O)c1ccc(NC(=O)CCc2c(C)nn(-c3ccc4nncn4n3)c2C)cc1 -9.4%, CCOc1ccc(CCNS(=O)(=O)c2c(C)nc3sc(C)cn3c2=O)cc1OCC -2.36%, CCC1CN(C(=O)N2CCC(C(=O)NCCOC)CC2)c2ccccc2O1 (centres undefined) -1.26%, Cc1ccc(NC(=O)CCS(=O)(=O)c2ccc3nc(C)sc3c2)cc1 -5.04%, CCc1ccc(NC(=O)C2CCCN(S(=O)(=O)c3c(C)[nH]c(=O)[nH]c3=O)C2)cc1 (centres undefined) -4.16%, COC(=O)c1ccc(Cn2nc(-c3ccc(C)c(C)c3)ccc2=O)cc1 -23.2%, O=C(CCS(=O)(=O)c1cc2c3c(c1)CCN3C(=O)CC2)NCc1ccc(F)cc1 -21.7%, COCCc1nn2c(=O)cc(COC(=O)COc3ccccc3C)nc2s1 -5.49%, COc1ccc(Cl)cc1Nc1ncnc2c1nc1n2CCCC1 5.02%, O=C(Nc1noc2ccccc12)c1cccc(F)c1 67.2%, CC(C)c1ccc(NC(=O)C2CCCN(S(=O)(=O)c3cccc4nonc34)C2)cc1 (centres undefined) -11.9%, Cc1cc(C)c(NC(=O)CSc2nnc3[nH]c(=O)cc(C)n23)c(C)c1 -4.54%, O=c1c2ccccc2n2c(-c3ccc(F)c(F)c3)nnc2n1CCc1ccccc1 0.888%, CCC(=O)Nc1ccc2nc(SCC(=O)N3CCc4ccccc43)sc2c1 -10.7%, CCOC(=O)c1ccccc1NC1(c2ccc(OC)cc2)C(=O)c2ccccc2C1=O -20%, CCOC(=O)c1c(S(=O)(=O)N2CCCC(C(=O)Nc3ccc(C)cc3C)C2)c(C)n(CC)c1C (centres undefined) -7.31%, COC(=O)c1ccc(C2c3c(oc4cc(C)c(C)cc4c3=O)C(=O)N2c2ccccn2)cc1 (centres undefined) -4.72%, Cc1cc(C)c(NC(=O)Cn2c(=O)n(CCC(=O)NCc3ccc4c(c3)OCO4)c(=O)c3ccccc32)c(C)c1 -16.5%, CCOC(=O)C1CCN(C(=O)CSc2c3c(nc4ccc(Cl)cc24)CCCC3)CC1 -30.4%, CC(=O)Nc1ccc(C(=O)CSc2nnc3cc(C)c4ccccc4n23)cc1 -9.55%, COc1ccc(CCC(=O)NC2CC(=O)N(c3ccc(C)c(C)c3)C2)cc1 (centres undefined) -13.4%, Cc1ccc(NC(=O)c2sc3nc(-c4ccc(F)cc4)cn3c2C)c(C)c1 -15.2%, Cc1ccc(CNC(=O)c2ccc(-c3nc(CN4CCc5ccccc54)c(C)o3)cc2)cc1 -36.2%, CCCCNC(=O)c1ccc2c(=O)n(-c3ccccc3)c(=O)[nH]c2c1 -17.8%, CCOc1ccc(CCNC(=O)CSc2cc(=O)n(C)c3ccccc23)cc1OCC -15.7%, COc1ccc(CNC(=O)C(=O)NCC(c2ccc3c(c2)OCO3)N2CCOCC2)cc1 (centres undefined) -2.51%, CCOC(=O)Cn1c(=O)oc2cc(S(=O)(=O)NCc3ccc(F)cc3)ccc21 -17.4%, CCCCC(CC)COC(=O)/C=C/c1ccc(OC)cc1 (centres undefined) 14.3%, Cc1ccc(Cl)cc1N1CCN(C(c2ccc(F)cc2)c2nnc(-c3ccccc3)o2)CC1 (centres undefined) -8.83%, O=C(CSc1n[nH]c(-c2ccccc2)n1)N1CCCCC1 55%, COC(=O)c1sccc1S(=O)(=O)N1CCN(c2cccc(C)c2C)CC1 -19.4%, CCOc1ccc(CC(=O)NCCc2csc3nc(-c4ccccc4F)nn23)cc1 -13.1%, CCN(CC)CCc1nc(-c2ccccc2)no1 6.98%
